B1: huAb3v2.5-WD (conjugate)
heavy: EVQLVQSGAEVKKPGSSVKVSCKASGYTFSSYWMHWVRQAPGQGLEWIGLIHPESGSTNYNEMFKNRATLTVDRSTSTAYMELSSLRSEDTAVYYCAGGGRLYFDYWGQGTTVTVSSASTKGPSVFPLAPSSKSTSGGTAALGCLVKDYFPEPVTVSWNSGALTSGVHTFPAVLQSSGLYSLSSVVTVPSSSLGTQTYICNVNHKPSNTKVDKKV[letters of human IgG1 Fc with changes omitted]
light: DIVMTQSPLSLPVTPGEPASISCRSSQSLVHSNRDTYLRWYLQKPGQSPQLLIYKVSNRFSGVPDRFSGSGSGTDFTLKISRVEAEDVGVYYCSQSTHVPYTFGGGTKVEIKRTVAAPSVFIFPPSDEQLKSGTASVVCLLNNFYPREAKVQWKVDNALQSGNSQESVTEQDSKDSTYSLSSTLTLSKADYEKHKVYACEVTHQGLSSPVTKSFNRGEC
B2: huAb3v2.6-SE (conjugate)
heavy: EVQLVQSGAEVKKPGSSVKVSCKASGYTFSSYWMHWVRQAPGQGLEWIGLIHPESGSTNYNEMFKNRATLTVDRSTSTAYMELSSLRSEDTAVYYCAGGGRLYFDYWGQGTTVTVSSASTKGPSVFPLAPSSKSTSGGTAALGCLVKDYFPEPVTVSWNSGALTSGVHTFPAVLQSSGLYSLSSVVTVPSSSLGTQTYICNVNHKPSNTKVDKKV[letters of human IgG1 Fc with changes omitted]
light: B1 light with R34Q
B3: huAb3v2.5-ZT (conjugate)
heavy: EVQLVQSGAEVKKPGSSVKVSCKASGYTFSSYWMHWVRQAPGQGLEWIGLIHPESGSTNYNEMFKNRATLTVDRSTSTAYMELSSLRSEDTAVYYCAGGGRLYFDYWGQGTTVTVSSASTKGPSVFPLAPSSKSTSGGTAALGCLVKDYFPEPVTVSWNSGALTSGVHTFPAVLQSSGLYSLSSVVTVPSSSLGTQTYICNVNHKPSNTKVDKKV[letters of human IgG1 Fc with changes omitted]
light: B1 light
B4: huAb3v2.6-WD (conjugate)
heavy: EVQLVQSGAEVKKPGSSVKVSCKASGYTFSSYWMHWVRQAPGQGLEWIGLIHPESGSTNYNEMFKNRATLTVDRSTSTAYMELSSLRSEDTAVYYCAGGGRLYFDYWGQGTTVTVSSASTKGPSVFPLAPSSKSTSGGTAALGCLVKDYFPEPVTVSWNSGALTSGVHTFPAVLQSSGLYSLSSVVTVPSSSLGTQTYICNVNHKPSNTKVDKKV[letters of human IgG1 Fc with changes omitted]
light: B1 light with R34Q
B5: huAb3v2.6-KZ (conjugate)
heavy: EVQLVQSGAEVKKPGSSVKVSCKASGYTFSSYWMHWVRQAPGQGLEWIGLIHPESGSTNYNEMFKNRATLTVDRSTSTAYMELSSLRSEDTAVYYCAGGGRLYFDYWGQGTTVTVSSASTKGPSVFPLAPSSKSTSGGTAALGCLVKDYFPEPVTVSWNSGALTSGVHTFPAVLQSSGLYSLSSVVTVPSSSLGTQTYICNVNHKPSNTKVDKKV[letters of human IgG1 Fc with changes omitted]
light: B1 light with R34Q
B6: huAb3v2.6-SR (conjugate)
heavy: EVQLVQSGAEVKKPGSSVKVSCKASGYTFSSYWMHWVRQAPGQGLEWIGLIHPESGSTNYNEMFKNRATLTVDRSTSTAYMELSSLRSEDTAVYYCAGGGRLYFDYWGQGTTVTVSSASTKGPSVFPLAPSSKSTSGGTAALGCLVKDYFPEPVTVSWNSGALTSGVHTFPAVLQSSGLYSLSSVVTVPSSSLGTQTYICNVNHKPSNTKVDKKV[letters of human IgG1 Fc with changes omitted]
light: B1 light with R34Q
B7: huAb3v2.5-ZZ (conjugate)
heavy: EVQLVQSGAEVKKPGSSVKVSCKASGYTFSSYWMHWVRQAPGQGLEWIGLIHPESGSTNYNEMFKNRATLTVDRSTSTAYMELSSLRSEDTAVYYCAGGGRLYFDYWGQGTTVTVSSASTKGPSVFPLAPSSKSTSGGTAALGCLVKDYFPEPVTVSWNSGALTSGVHTFPAVLQSSGLYSLSSVVTVPSSSLGTQTYICNVNHKPSNTKVDKKV[letters of human IgG1 Fc with changes omitted]
light: B1 light
B8: huAb3v2.5-YG (conjugate)
heavy: EVQLVQSGAEVKKPGSSVKVSCKASGYTFSSYWMHWVRQAPGQGLEWIGLIHPESGSTNYNEMFKNRATLTVDRSTSTAYMELSSLRSEDTAVYYCAGGGRLYFDYWGQGTTVTVSSASTKGPSVFPLAPSSKSTSGGTAALGCLVKDYFPEPVTVSWNSGALTSGVHTFPAVLQSSGLYSLSSVVTVPSSSLGTQTYICNVNHKPSNTKVDKKV[letters of human IgG1 Fc with changes omitted]
light: B1 light
B9: huAb3v2.5-LB (conjugate)
heavy: EVQLVQSGAEVKKPGSSVKVSCKASGYTFSSYWMHWVRQAPGQGLEWIGLIHPESGSTNYNEMFKNRATLTVDRSTSTAYMELSSLRSEDTAVYYCAGGGRLYFDYWGQGTTVTVSSASTKGPSVFPLAPSSKSTSGGTAALGCLVKDYFPEPVTVSWNSGALTSGVHTFPAVLQSSGLYSLSSVVTVPSSSLGTQTYICNVNHKPSNTKVDKKV[letters of human IgG1 Fc with changes omitted]
light: B1 light
B10: huAb3v2.6-YG (conjugate)
heavy: EVQLVQSGAEVKKPGSSVKVSCKASGYTFSSYWMHWVRQAPGQGLEWIGLIHPESGSTNYNEMFKNRATLTVDRSTSTAYMELSSLRSEDTAVYYCAGGGRLYFDYWGQGTTVTVSSASTKGPSVFPLAPSSKSTSGGTAALGCLVKDYFPEPVTVSWNSGALTSGVHTFPAVLQSSGLYSLSSVVTVPSSSLGTQTYICNVNHKPSNTKVDKKV[letters of human IgG1 Fc with changes omitted]
light: B1 light with R34Q
B11: huAb3v2.5-SE (conjugate)
heavy: EVQLVQSGAEVKKPGSSVKVSCKASGYTFSSYWMHWVRQAPGQGLEWIGLIHPESGSTNYNEMFKNRATLTVDRSTSTAYMELSSLRSEDTAVYYCAGGGRLYFDYWGQGTTVTVSSASTKGPSVFPLAPSSKSTSGGTAALGCLVKDYFPEPVTVSWNSGALTSGVHTFPAVLQSSGLYSLSSVVTVPSSSLGTQTYICNVNHKPSNTKVDKKV[letters of human IgG1 Fc with changes omitted]
light: B1 light
B12: huAb3v2.5-SR (conjugate)
heavy: EVQLVQSGAEVKKPGSSVKVSCKASGYTFSSYWMHWVRQAPGQGLEWIGLIHPESGSTNYNEMFKNRATLTVDRSTSTAYMELSSLRSEDTAVYYCAGGGRLYFDYWGQGTTVTVSSASTKGPSVFPLAPSSKSTSGGTAALGCLVKDYFPEPVTVSWNSGALTSGVHTFPAVLQSSGLYSLSSVVTVPSSSLGTQTYICNVNHKPSNTKVDKKV[letters of human IgG1 Fc with changes omitted]
light: B1 light

Positions count from the first letter of the chain named.

The first data set can be described thus: DAR of ADC by LC-MS. To be noted: ADC as conjugated (Method A, E or G). On the procedure:
The DAR and percentage aggregation of ADCs synthesized were determined by LC-MS and size exclusion chromatography (SEC), respectively.
LC-MS analysis was performed using an Agilent 1100 HPLC system interfaced to an Agilent LC/MSD TOF 6220 ESI mass spectrometer. The ADC was reduced with 5 mM (final concentration) Bond-Breaker® TCEP solution (Thermo Scientific, Rockford, Ill.), loaded onto a Protein Microtrap (Michrom Bioresorces, Auburn, Calif.) desalting cartridge, and eluted with a gradient of 10% B to 75% B in 0.2 minutes at ambient temperature. Mobile phase A was H2O with 0.1% formic acid (FA), mobile phase B was acetonitrile with 0.1% FA, and the flow rate was 0.2 mL/min. Electrospray-ionization time-of-flight mass spectra of the co-eluting light and heavy chains were acquired using Agilent MassHunter™ acquisition software. The extracted intensity vs. m/z spectrum was deconvoluted using the Maximum Entropy feature of MassHunter software to determine the mass of each reduced antibody fragment. DAR was calculated from the deconvoluted spectrum by summing intensities of the naked and modified peaks for the light chain and heavy chain, normalized by multiplying intensity by the number of drugs attached. The summed, normalized intensities were divided by the sum of the intensities, and the summing results for two light chains and two heavy chains produced a final average DAR value for the full ADC.
With B1, the “DAR by MS” value came to 2.8.
Same read-out and setting: with B2 the figure was 3.6.
Same read-out and setting: with B3 the figure was 1.6.
The same measure, in the same setting: under B4 stands 3.1; under B5, 3.5.
Turning to B6, the “DAR by MS” value was 2.5.
For the molecule B7, the “DAR by MS” value is 1.2.
As to B8, the “DAR by MS” value stood at 4.
B9: the “DAR by MS” value is recorded as 2.2.
B10: the “DAR by MS” value came out at 3.7.
On the same count and under the same terms, under B11 stands 3.7; under B12, 1.8.

A short description of the next data set: Aggregation of conjugates by SEC. It is filed as physicochemical. To be noted: ADC as conjugated (Method A, E or G).
Turning to B1, the “% agg by SEC” value came to 11.5%.
On the same count and under the same terms, under B2 stands 11.8%.
Still for that read-out and setting: with B3 the figure was 70.1%.
Same read-out and setting: under B4 stands 12.4%; under B5, 26.1%.
Consider B6, for which the “% agg by SEC” value came out at 48.2%.
In the case of B7, the “% agg by SEC” value was determined as 19.4%.
Same read-out and setting: under B8 stands 8.6%.
On the same count and under the same terms, under B9 stands 24.4%; under B10, 9.9%; under B11, 10.6%.
Same read-out and setting: under B12 stands 48.5%.

The record behind these values is patent publication US10640563B2, “Anti-B7-H3 antibodies and antibody drug conjugates” (AbbVie Inc., priority 2016, dated 2020).
